This is an account of results in PMC3006391.

The chains behind the UniProt entries cited, without tags or fusion partners. Where a name states a change or a piece, a line headed by the entry shows the natural chain unless it says otherwise. A line that says so, or that is headed by a name, gives the form on record, which may keep a tag or linker. Residues count along the entry.
Bcl-xLΔTM (FLAG-tagged) (Q07817, residues 1-211): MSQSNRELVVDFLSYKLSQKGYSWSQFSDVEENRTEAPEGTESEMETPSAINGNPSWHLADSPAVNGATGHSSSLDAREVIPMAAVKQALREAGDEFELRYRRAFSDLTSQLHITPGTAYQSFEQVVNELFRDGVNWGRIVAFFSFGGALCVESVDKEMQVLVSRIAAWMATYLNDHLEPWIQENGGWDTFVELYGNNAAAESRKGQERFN
Bcl-xLΔBH4 (FLAG-tagged) (Q07817, residues 25-233): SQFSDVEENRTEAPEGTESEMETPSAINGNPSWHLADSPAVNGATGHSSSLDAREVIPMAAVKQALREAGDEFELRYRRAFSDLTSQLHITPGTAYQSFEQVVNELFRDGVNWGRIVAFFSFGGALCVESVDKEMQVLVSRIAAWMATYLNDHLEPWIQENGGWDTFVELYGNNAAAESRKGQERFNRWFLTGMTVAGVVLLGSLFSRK
Bcl-xLY101K (FLAG-tagged) (Q07817-1, form named): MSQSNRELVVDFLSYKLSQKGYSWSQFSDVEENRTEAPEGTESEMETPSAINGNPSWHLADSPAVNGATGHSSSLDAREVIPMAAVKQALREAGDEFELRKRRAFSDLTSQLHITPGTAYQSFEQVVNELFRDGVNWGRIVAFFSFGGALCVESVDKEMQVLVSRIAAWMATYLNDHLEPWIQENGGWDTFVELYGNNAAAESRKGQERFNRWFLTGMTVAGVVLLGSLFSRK
UniProt P10415: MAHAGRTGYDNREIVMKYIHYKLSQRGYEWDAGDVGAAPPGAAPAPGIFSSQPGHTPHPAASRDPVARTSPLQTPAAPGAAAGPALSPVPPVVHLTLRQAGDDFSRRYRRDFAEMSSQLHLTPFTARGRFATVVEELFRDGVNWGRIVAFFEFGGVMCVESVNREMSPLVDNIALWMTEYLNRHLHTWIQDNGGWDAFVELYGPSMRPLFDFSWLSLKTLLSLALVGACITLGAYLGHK

Assay [1] deals with T1, Praf2^HA (HEK 293T) (human) (UniProt O60831).
T1 sequence: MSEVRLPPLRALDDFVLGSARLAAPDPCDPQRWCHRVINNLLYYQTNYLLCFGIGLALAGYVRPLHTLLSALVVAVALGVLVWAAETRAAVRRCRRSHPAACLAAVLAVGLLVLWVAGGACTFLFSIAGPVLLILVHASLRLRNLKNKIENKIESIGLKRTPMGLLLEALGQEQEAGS
As to the kind of experiment: co-IP; HEK 293T cells co-transfected, lysed after 24 h in CHAPS extraction buffer (50 mM Tris/HCl pH 8.0, 150 mM NaCl, 1% CHAPS); anti-HA agarose 2 h at 4°C; immunoblot with anti-HA and anti-FLAG.

The target of another assay is T2, Praf2^HA (U2OS) (human) (UniProt O60831).
T2 sequence: T1 sequence
As to the kind of experiment: co-IP; U2OS cells transfected with pcDNA3C3xHA/Praf2 or empty vector, CHAPS extraction buffer, 560 µg extract; anti-HA agarose 2 h at 4°C; immunoblot with anti-HA and anti-Bcl-xL (endogenous Bcl-xL).

The next assay concerns the target T3, Arl6IP5^HA (UniProt O75915).
T3 sequence: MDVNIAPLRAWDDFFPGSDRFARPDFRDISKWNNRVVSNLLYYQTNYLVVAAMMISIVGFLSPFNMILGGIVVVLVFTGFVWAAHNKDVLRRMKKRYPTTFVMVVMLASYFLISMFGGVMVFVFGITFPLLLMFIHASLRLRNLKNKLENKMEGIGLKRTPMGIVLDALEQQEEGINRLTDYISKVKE
As to the kind of experiment: co-IP; HEK 293T cells co-transfected, lysed after 24 h in CHAPS extraction buffer (50 mM Tris/HCl pH 8.0, 150 mM NaCl, 1% CHAPS); anti-HA agarose 2 h at 4°C; immunoblot with anti-HA and anti-FLAG.

No constants are given. Whether binding was seen depends on the method and setting. Binding seen in cells or lysates may run through a third protein. Some entries that bind do so weakly or less than the wild type. Where a sequence is shown, tags or fusion partners need not be part of it.

For the substance “Bcl-xLΔTM (FLAG-tagged) (from UniProt Q07817-1 1-211) (domain or fragment)”, the binding result in assay [1] is on record as “no binding”.
“Bcl-xLY101K (FLAG-tagged) (from UniProt Q07817-1 1-233)”: the binding entry in assay [1] is listed as “binds”.
As to “endogenous Bcl-xL (U2OS) (from UniProt Q07817-1 1-233)”, the binding entry with Praf2^HA (U2OS) (human) is recorded as “binds”.
^FLAGBcl-2 (from UniProt P10415 1-239): the binding result (in assay [1]; with Arl6IP5^HA) was “binds” throughout.
Regarding “^FLAGBcl-xL (from UniProt Q07817-1 1-233)”, the binding entry (in assay [1]; with Arl6IP5^HA) was “binds” throughout.
For the substance “Bcl-xLΔBH4 (FLAG-tagged) (from UniProt Q07817-1 25-233) (domain or fragment)”, in assay [1], the binding result was “binds”.
